Test results from PubChem BioAssay AID504374 (National Center for Advancing Translational Sciences (NCATS), 2011).
About 100 (6.7%) of roughly 1,500 compounds were called active. Another 7% or so got no clear call; they are omitted. Calls come from the whole dose curve; as a rule, active = well fitted inhibition curve with a large enough effect; inconclusive = small, poorly fitted or top-dose-only effect, or effect the other way; inactive = flat fitted curve, though single readings scatter. Some of the results follow.

target: Runt-related transcription factor 1 (Homo sapiens) + Core-binding factor subunit beta (Homo sapiens) (UniProt Q01196+Q13951); assay: qHTS Assay for Compounds Blocking the Interaction Between CBF-beta and RUNX1 for the Treatment of Acute Myeloid Leukemia: Hit Validation; conditions: AlphaScreen CBFb-His/RUNX1-biotin binding; series mostly up to 59.8 µM; activity, negative = inhibition: at the top concentration; note: nearly all actives have a fitted effect of over 60% in size
UniProt Q01196, sequence (Q01196 whole entry, looked up): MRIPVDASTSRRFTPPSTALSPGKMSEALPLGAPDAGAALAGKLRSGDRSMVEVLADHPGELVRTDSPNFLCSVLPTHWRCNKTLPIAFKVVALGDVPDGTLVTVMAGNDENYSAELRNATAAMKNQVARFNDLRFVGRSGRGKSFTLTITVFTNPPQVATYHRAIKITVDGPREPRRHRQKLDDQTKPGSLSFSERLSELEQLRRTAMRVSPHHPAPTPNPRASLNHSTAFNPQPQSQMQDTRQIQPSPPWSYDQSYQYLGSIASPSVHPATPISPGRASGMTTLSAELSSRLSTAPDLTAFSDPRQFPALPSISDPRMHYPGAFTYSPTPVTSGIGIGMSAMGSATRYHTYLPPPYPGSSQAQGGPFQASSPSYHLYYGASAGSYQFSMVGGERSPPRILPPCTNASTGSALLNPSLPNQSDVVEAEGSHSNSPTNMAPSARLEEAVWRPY
UniProt Q01196, sequence (Q13951 whole entry, looked up): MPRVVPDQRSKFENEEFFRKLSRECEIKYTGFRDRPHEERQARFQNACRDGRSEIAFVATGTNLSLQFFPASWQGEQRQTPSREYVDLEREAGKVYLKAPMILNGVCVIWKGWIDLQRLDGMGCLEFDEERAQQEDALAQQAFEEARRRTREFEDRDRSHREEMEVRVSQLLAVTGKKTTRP
Procedure, shortened: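 Compounds were added to a premixed CBF-beta-His/RUNX1-biotin complex (30 nM each, 20 min) for 15 min. Nickel and streptavidin AlphaScreen beads followed for 90 min at room temperature, with emission at 440 nm […].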
% is set by controls: 0 for no effect and ±100 for the full control effect; potency is the fitted concentration of half-maximal effect.

SMILES | activity, negative = inhibition | Potency
CCCn1nnc(NC(=S)NC(=O)c2ccc(-c3ccc(Br)cc3)o2)n1 | inactive: -7.74% | –
CN(C)CCCNC(=O)c1ccccc1Oc1ccccc1 | inactive: 3.71% | –
COc1ccc(NS(=O)(=O)c2ccc(Cl)s2)cn1 | inactive: -2.13% | –
CN1c2ccccc2C(=O)/C(=C\Nc2ncccn2)S1(=O)=O | inactive: -4.86% | –
C1CCCC(NC2=NCCO2)CCC1 | inactive: -2.83% | –
CSc1cccc(NC(N)=S)c1 | inactive: -4.24% | –
CN1CCC(CNC(=O)Nc2csc3ccccc23)CC1 | inactive: 7.69% | –
O=C(O)C1CC(c2ccccc2)=Nc2ccccc2S1 (stereo not given) | inactive: -3.57% | –
c1ccc(CN(Cc2ccccc2)c2ncnc3c2nnn3Cc2ccccc2)cc1 | inactive: -1.94% | –
CCN(CC)C(=O)C12C(=O)Oc3ccccc3C1C2(C)C(=O)c1ccc(F)cc1 (stereo not given) | inactive: -1.08% | –
COc1ccc(CCN2C(=O)CSC2=Nc2ccc(C(C)C)cc2)cc1OC | inactive: -0.02% | –
COC(=O)CC1=C(C(=O)OC)[C@@H](c2ccccc2[N+](=O)[O-])C(C#N)=C(N)O1 | inactive: 3.04% | –
CC1(C)C(CC2OCC(CN3CCCCC3)O2)[C@H]2CC[C@@H]1C2 (stereo not given in full) | inactive: -2.34% | –
NNC(=S)Nc1c(F)cc(F)cc1Br | inactive: -7.15% | –
C[N+](C)(C)CCCN(Cc1ccc2c(c1)OCO2)C(=O)NC1CCCCC1 | inactive: -8.77% | –
C/C(=N\NC(=O)Cn1nc(C)cc1C)c1ccc([N+](=O)[O-])cc1 | inactive: -0.734% | –
CN1CCN(CC(=O)Nc2c(C#N)cnn2-c2ccccc2)CC1 | inactive: 9.42% | –
CCn1c(=O)c2c(nc3n2CCCN3c2cccc(C)c2)n(C)c1=O | inactive: -4.87% | –
CC1(C)CC(=O)C2=C(C1)OC(N)=C(C#N)[C@@H]2c1ccccc1[N+](=O)[O-] | inactive: -5.53% | –
Cc1cccc(C)c1NC(=S)N(CCN(C)C)C(C)c1ccccn1 (stereo not given) | – | active: 4.86 µM

SMILES | activity, negative = inhibition | Potency
COc1cc(/C=N/n2cc(-c3ccccc3)[nH]c2=S)cc(OC)c1O | inactive: -11.7% | –
CCOC(=O)c1cn[nH]c1NC(=S)Nc1ccccc1 | inactive: 37.9% [at 21.7 µM] | –
Cc1nn(Cc2cccc(C(=O)NN)c2)c(C)c1Cl | inactive: -7.99% | –
CCOC(=O)N1CCC(NS(=O)(=O)c2ccc(C)c(Cl)c2)CC1 | inactive: -2.28% | –
O=C(Oc1c(-c2ccccc2)c(=O)n2c3c(cccc13)CC2)c1cccc([N+](=O)[O-])c1 | inactive: 6.43% | –
CCOC(=O)c1ccc(OC)c(OC)c1Cl | inactive: -7.87% | –
CC1SCC(NC(=O)c2ccccc2Cl)CS1 (stereo not given) | inactive: -2.93% | –
CN(c1ccccn1)c1ncnc2[nH]ncc12 | inactive: 13.2% | –
CCOC(=O)c1c(CN2CCN(CCO)CC2)n(-c2ccccc2)c2cc(Br)c(O)cc12 | inactive: -10.7% | –
COc1cccc(/C=N/NC(=O)C(C)Cn2cnc3ccccc32)c1 (stereo not given) | inactive: -0.552% | –
CCOC(=O)/C=C/c1nc(C(=O)OCC)c(C)c(=O)[nH]1 | inactive: -1.52% | –
COc1ccc(-c2cn[nH]c2C)cc1 | inactive: -1.74% | –
COc1ccc(Nc2cc(=O)n(-c3ccccc3)c3c2c(=O)n(C)c(=O)n3C)cc1 | inactive: 7.59% | –
COC(=O)c1ccc(S(=O)(=O)NCc2ccccc2)n1C | inactive: -12.4% | –
CCCCCCC(=O)N(O)C1CC(=O)N(c2ccc(F)cc2)C1=O (stereo not given) | inactive: -2.04% | –
Cc1oc(S(=O)(=O)N(C)C)cc1C(=O)Nc1ccc(Cl)cc1 | inactive: -5.12% | –
CCOC(=O)c1nnn2c3ccccc3c(=O)n(C)c12 | inactive: -3.79% | –
O=C(O)CSc1ccc(NC(=O)Nc2ccccc2F)cc1 | inactive: 4.54% | –
Cc1ccc(C2=Nc3ccccc3SC(c3cccc([N+](=O)[O-])c3)C2)cc1 (stereo not given) | inactive: 1.17% | –
CCOC(=O)c1ccc(NC(=O)CC2SC3=NCCN3C2=O)cc1 (stereo not given) | inactive: -3.77% | –

SMILES | activity, negative = inhibition | Potency
Cc1ccc(NC(=S)Nc2ccc3[nH]c(=O)[nH]c3c2)cc1 | inactive: -5.71% | –
Cc1ccc(S(=O)(=O)Nc2cc(-c3ccccc3)nn2C)cc1 | inactive: -4.09% | –
COC(=O)c1ccc(S(=O)(=O)N(CCO)Cc2ccccc2)n1C | inactive: -0.911% | –
CCN(CC)C(=O)CSc1nnc2nnc3cc(Cl)ccc3n12 | inactive: 2.44% | –
NC(=S)Nc1cc(Cl)ccc1Cl | inactive: 5.13% | –
CC1CC(=O)Nc2ccccc2N1S(=O)(=O)c1ccc(C#N)cc1 (stereo not given) | inactive: 12.1% | –
O=c1oc2c(O)c(O)cc3c(=O)oc4c(O)c(O)cc1c4c23 | – | active: 0.158 µM
CC(C)(C)NC(=O)c1cccc2c1C(=O)c1ccccc1-2 | inactive: -5.31% | –
O=C(NC(=S)Nc1cc(C(F)(F)F)ccc1N1CCOCC1)c1ccco1 | inactive: -20.8% | –
CCNc1nc(Cl)nc(-c2cn(-c3ccccc3)c3ccccc23)n1 | inactive: 3.04% | –
NNC(=O)c1ccc(COCC(F)(F)C(F)F)cc1 | inactive: -1.86% | –
O=S(=O)(c1ccc(Cl)nc1)N1CCc2ccccc21 | inactive: -2.9% | –
NC(=S)N1CCCc2ccccc21 | inactive: -12.9% | –
Cc1csc2c(N3CCN(S(=O)(=O)c4ccc(Cl)cc4)CC3)ncnc12 | inactive: -2.17% | –
O=S(=O)(CCN1CCSCC1)c1ccc(Cl)cc1 | inactive: -4.66% | –
COc1ccc(-c2noc(-c3cccs3)n2)cc1OC | inactive: -5.17% | –
COC(=O)[C@H](CC(C)C)NC(=O)NCCC1=CCCCC1 | inactive: -14.1% | –
O=c1[nH]c(SCCN2CCOCC2)nc(O)c1-c1ccccc1 | inactive: 3.04% | –
Cc1ccc(C(=O)OCC(=O)Nc2ccc(S(N)(=O)=O)cc2)c(O)c1 | inactive: 0.594% | –
N#CC(C#N)=C(N)Nc1cccc(Cl)c1 | inactive: -12.8% | –
